The whole screen tested about 340,000 compounds, of which about 12,000 (3.5%) were called active. Inconclusive means that the source gave no clear call. Such entries were picked first, then a sample of the others. Calls come from the whole dose curve; as a rule, active = well fitted inhibition curve with a large enough effect; inconclusive = small, poorly fitted or top-dose-only effect, or another doubt; inactive = no such curve, though single readings can be large or run the other way. No potency is given beside an inconclusive call; the fits are too rough.
Assay: qHTS Assay for Inhibitors of Hepatitis C Virus (HCV)
Conditions: Huh7.5.1 HCVcc-Cre (HCVcc is cell-culture hepatitis C virus) infection, luciferase reporter, 44 h; activity change, negative = inhibition: at 41.8 µM (top of the series) unless noted
Procedure, shortened: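 A cell-based infection assay in which seeded cells (1,000 per well) receive test compound after 4 h, are inoculated with HCVcc-Cre at approximately 0.5 moi, and are incubated 44 h before luminescence detection.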
% is set by controls: 0 for no effect and ±100 for the full control effect; potency is the fitted concentration of half-maximal effect; tags give direction and shape of the fitted curve.

| SMILES | activity change, negative = inhibition | Potency |
| --- | --- | --- |
| c1ccc(COc2ncnc3c2ncn3CCCN2CCN(c3ccccn3)CC2)cc1 | inactive: -20.8% [at 8.37 µM] | – |
| COc1ccccc1CNC(=O)C(=O)c1cn(CC(=O)N2CCCC2)c2ccccc12 | – | inconclusive [inhibitor, partial curve] |
| O=C(Nc1cccc(Cl)c1)c1cc(N=Nc2ccc([N+](=O)[O-])cc2Cl)ccc1O | – | inconclusive [inhibitor, partial curve] |
| Cc1c(C(=O)Oc2cccc3cccnc23)oc2ccccc12 | – | inconclusive [inhibitor, single point] |
| O=C(OCc1c(F)cccc1Cl)c1cc([N+](=O)[O-])ccc1N1CCOCC1 | – | active: 11.2 µM |
| O=C(Cc1ccccc1)Nc1cccc(-c2nnc(-c3ccco3)o2)c1 | – | inconclusive [inhibitor, partial curve] |
| CCOc1cc(C(=O)N/N=C/C2CC=CCC2)cc(OCC)c1OCC (stereo unspecified) | – | inconclusive [inhibitor, partial curve] |
| CCOc1ccc(Nc2oc(-c3cccc(Cl)c3)nc2C#N)cc1 | – | inactive |
| C=CC[C@@H](Cc1ccc(F)cc1)C(=O)OC[C@@H]1CCCN1C(=O)[C@H](CC=C)CC(=O)N(CCO)Cc1ccccc1 | – | active: 1.41 µM |
| Clc1ccc(-n2ncc3c(NCCN4CCOCC4)ncnc32)cc1 | – | inconclusive [inhibitor, single point] |
| COc1ccccc1-c1nc(-c2cccc(C)c2)no1 | – | inconclusive [inhibitor, single point] |
| Cc1ccc(C2(C)NC(=O)N(CC(=O)NCc3cccs3)C2=O)cc1 (stereo unspecified) | – | inconclusive [inhibitor, full curve, poor fit] |
| CSc1ccc(C#N)cc1NC(=O)c1ccc(Cl)cc1Cl | – | inconclusive [inhibitor, full curve, poor fit] |
| CC(=O)c1ccc(NC2=C(N3CCOCC3)C(=O)c3ccccc3C2=O)cc1 | – | inconclusive [inhibitor, single point] |
| COc1cccc(NC(=O)CN(C)C(=O)c2c(C)noc2C)c1 | – | inactive |
| Cc1cnc(C(=O)NNC(=O)c2ccc(Br)cc2)cn1 | – | inconclusive [inhibitor, single point] |
| Cc1cc(-n2c(C)cc(C(=O)CSc3ccccn3)c2C)no1 | – | inconclusive [inhibitor, single point] |
| C=CCN(Cc1nc(-c2ccccc2)no1)C(=O)c1ccc2c(c1)OCO2 | – | inconclusive [inhibitor, single point] |
| CCN(CC)c1cccc(OCC(=O)N2c3ccccc3CC2C)c1 (stereo unspecified) | – | inconclusive [inhibitor, partial curve] |
| COc1ccc(-c2cc3nc4c(c(N5CCC6(CC5)OCCO6)n3n2)CCC4)cc1 | – | inconclusive [inhibitor, partial curve] |
| COc1ccc(NC(=O)Nc2ccc3c(c2)C(=O)N([C@H](C)CO)C[C@H](C)[C@@H](CN(C)C(=O)NC(C)C)O3)cc1 | – | inconclusive [inhibitor, full curve, poor fit] |
| Cc1cc(C)c(OCCCCn2cnc3ccccc3c2=O)c(C)c1 | – | inconclusive [inhibitor, single point] |

| SMILES | activity change, negative = inhibition | Potency |
| --- | --- | --- |
| Cc1cc(=O)oc2cc(OCC(=O)N3CCN(C(=O)C4COc5ccccc5O4)CC3)ccc12 (stereo unspecified) | – | active: 17.8 µM |
| CCc1ccccc1NC(=O)CN1C(=O)C2CCCN2c2ncc(Cl)cc21 (stereo unspecified) | – | inconclusive [inhibitor, single point] |
| COc1ccccc1NC(=O)N(Cc1cccs1)Cc1cc2cc3c(cc2[nH]c1=O)OCO3 | – | inconclusive [inhibitor, single point] |
| COc1ccc(-c2csc(Nc3ccccc3)[n+]2Cc2ccccc2)cc1 | – | inconclusive [inhibitor, single point] |
| CCOC(=O)c1cccc(Nc2nc(C)cc(C)n2)c1 | – | inconclusive [inhibitor, full curve, poor fit] |
| COc1ccc(/C=C/c2nc(-c3ccccc3O)n[nH]2)cc1OC | – | inconclusive [inhibitor, partial curve] |
| Fc1ccc(COc2ccc(Br)cc2CNCc2ccncc2)cc1 | – | active: 10 µM |
| CCOC(=O)C1=CN(Cc2cccc(-c3ccc(F)cc3)c2)S(=O)(=O)N(C)C1C (stereo unspecified) | – | inconclusive [inhibitor, single point] |
| CCn1c(C)nc2cc(-c3nnc(-c4c(-c5ccccc5)noc4C)o3)ccc21 | – | inconclusive [inhibitor, partial curve] |
| COc1ccccc1NC(=O)c1ccccc1NC(=O)c1cc(Cl)ccc1NC(=O)c1ccco1 | – | inconclusive [inhibitor, full curve] |
| CN1C2CCC1/C(=C/c1cccn1C)C(=O)/C2=C\c1cccn1C | – | inconclusive [inhibitor, full curve] |
| COc1ccc(N(CC(=O)NCCSc2ccccc2)S(=O)(=O)c2ccccc2)cc1 | – | inconclusive [inhibitor, single point] |
| CC(C)Sc1nc(-c2ccccc2)cc(=O)[nH]1 | – | inactive |
| C[C@@H]1C(c2ccc(F)cc2)=NN(c2ccccc2)[C@H]1C(=O)N1CCOC1=O | – | inconclusive [inhibitor, single point] |
| Cc1ccc(NC(=O)C2CCCN(S(=O)(=O)c3ccc4c(c3)oc(=O)n4C)C2)nc1 (stereo unspecified) | – | inconclusive [inhibitor, partial curve] |
| O=C(N=C1N=C2C=CC=CN2Cc2ccccc21)c1ccc(S(=O)(=O)N2CCCC2)cc1 | – | inconclusive [inhibitor, full curve, poor fit] |
| c1ccc(-c2nc(N3CCOCC3)sc2-c2ccccc2)cc1 | – | inconclusive [inhibitor, partial curve] |
| Cc1ccc([N+](=O)[O-])cc1N=Nc1c(-c2ccc([N+](=O)[O-])cc2)[nH]n(C(N)=S)c1=O | – | active: 7.94 µM |
| Cc1ccc(NC(=O)c2ccc(NCC3CCCO3)c([N+](=O)[O-])c2)cc1Cl (stereo unspecified) | – | inconclusive [inhibitor, single point] |
| Fc1cccc(CSc2ccc(-c3ccco3)nn2)c1 | – | inactive |
| Cc1nn(Cc2ccccc2Cl)c(C)c1C(=O)OCC(=O)NC1CCCC(C)C1C (stereo unspecified) | – | inconclusive [inhibitor, single point] |
| Cc1cc(C)cc(C(=O)NC(=S)Nc2ccc(Cc3ccncc3)cc2)c1 | – | inconclusive [inhibitor, single point] |

| SMILES | activity change, negative = inhibition | Potency |
| --- | --- | --- |
| CCCCNC(=O)Nc1cc(C(=O)OC)ccc1Cl | – | inconclusive [inhibitor, full curve] |
| CC(=O)Nc1ccc(C(=O)Nc2ccc(S(=O)(=O)N3CCOCC3)cc2)cc1 | – | inactive |
| Cn1c(=O)[nH]c2nncnc2c1=O | – | inconclusive [inhibitor, single point] |
| COc1cc([N+](=O)[O-])ccc1NC(=O)Nc1ccc2c(c1)OCCO2 | – | active: 7.08 µM |
| O=C(/C=C/c1ccc([N+](=O)[O-])o1)NNC(=O)c1ccc(F)cc1 | – | active: 14.1 µM |
| COc1ccc(S(=O)(=O)N/N=C\c2ccc([N+](=O)[O-])o2)c(OC)c1 | – | inactive |
| COC(=O)c1ccccc1NC(=O)c1ccnn1C | – | inconclusive [inhibitor, single point] |
| Cc1cccc(OCC(=O)Nc2ccc(NC(=O)c3ccco3)c(C)c2)c1 | – | inconclusive [inhibitor, single point] |
| CCOc1c2ccc(C(=O)NCc3cc(C(F)(F)F)cc(C(F)(F)F)c3)cc2nn1C | – | inconclusive [inhibitor, single point] |
| CC(C)NC(=O)NC(=O)CSc1nnc(-c2c[nH]c3ccccc23)o1 | – | inconclusive [inhibitor, single point] |
| Cc1nn(-c2cccc(Cl)c2)c2nc(-c3ccncc3)cc(C(=O)N3CCOCC3)c12 | – | active: 7.94 µM |
| Nc1nc2n[nH]nc2c(=O)[nH]1 | – | inconclusive [inhibitor, full curve] |
| O=c1[nH]c2ccc(NS(=O)(=O)c3ccc4ccccc4c3)cc2[nH]1 | – | inconclusive [inhibitor, full curve, poor fit] |
| CC(C)Oc1ccc(Nc2ncnc3ccccc23)cc1 | – | inconclusive [inhibitor, single point] |
| Cc1cccc(CN2CCN(c3ccc(Cl)cc3)CC2)c1 | – | inactive |
| CCC1CN2CCc3cc(OC)c(OC)cc3C2CC1CC1c2cc(OC)c(OC)cc2CCN1C(=O)C(Cc1c[nH]c2ccccc12)NC(=O)OC(C)(C)C (stereo unspecified) | – | active: 11.2 µM |
| Cc1cc(C)cc(C(=O)NCc2ccc3c(c2)OCO3)c1 | – | inactive |
| O=C(CSc1nc2ncccc2[nH]1)c1ccc(F)cc1 | – | inactive |
| Cc1ccc(Nc2cc(C)nn2-c2nc(C)cc(=O)[nH]2)cc1 | – | inconclusive [inhibitor, full curve] |
| O=C(NCCN1CCN(c2ccccc2)CC1)c1ccc2c(c1)[nH]c(=S)n1c3ccccc3nc21 | – | inconclusive [inhibitor, single point] |
| CCOC(=O)C1(Cc2ccc(OC)cc2)CCN(S(C)(=O)=O)CC1 | – | inactive |
| Cc1ccc(NC(=O)COc2ccc(-c3nnco3)cc2)cc1S(=O)(=O)N1CCOCC1 | – | inconclusive [inhibitor, partial curve, poor fit] |

— PubChem BioAssay AID651820 (National Center for Advancing Translational Sciences (NCATS), 2012)
